# Article PMC12820563, “FoxP3 forms a head-to-head dimer in vivo and stabilizes its multimerization on adjacent microsatellites”
# The other results are listed elsewhere or left out.
# Target: T1, MBP-FoxP1dN (Mus musculus, UniProt P58462 326-579)
# T1 sequence: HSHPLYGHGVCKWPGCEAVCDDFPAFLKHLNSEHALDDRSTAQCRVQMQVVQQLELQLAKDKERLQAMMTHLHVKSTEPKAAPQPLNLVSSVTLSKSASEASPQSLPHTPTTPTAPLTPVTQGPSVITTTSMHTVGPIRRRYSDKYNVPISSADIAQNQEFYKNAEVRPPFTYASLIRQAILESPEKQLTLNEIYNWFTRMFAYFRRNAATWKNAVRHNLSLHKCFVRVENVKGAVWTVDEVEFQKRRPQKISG
# Assay: PD-seq (MBP pull-down with sequencing); 20 mM Tris-HCl pH 7.5, 100 mM NaCl, 1.5 mM MgCl2, 0.4 uM protein, 0.1 uM dsDNA library, 30 min, room temperature, amylose pull-down; high values mean tight binding
# Conditions: protein: recombinant; tags: His6-MBP; chain copies: 2; dsDNA, one strand shown
# Summary of the method: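 Binding is given as reads-per-million enrichment, pull-down over input, with replicates pooled. The bait was an N-terminus-lacking mouse FoxP3 or FoxP1 fragment with a His6-MBP tag, expressed in E. coli and used at 0.4 µM with 0.1 µM Klenow-filled degenerate double-stranded DNA library for 30 min at room temperature in Tris pH 7.5 buffer with NaCl and MgCl2. Amylose resin pull-down with three washes was followed by proteinase K release, PCR barcoding and Illumina sequencing.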
row,Sequence,binding signal
1,GATGATTGTTCTCCCAGCTGATGAATTACGCCCGTCGAGTAAACAAATTTTCCTAATCTTTCTGTTCAAGCGCCATCTAC,0.947 RPM ratio (pull-down/input)
2,GATGATTGTTCTCCCAGCTGATGAATTTACTTTCTCGAGTAAACAAATTTTCCTAATCTTTCTGTTCAAGCGCCATCTAC,1.32 RPM ratio (pull-down/input)
3,GATGATTGTTCTCCCAGCTGATGAATTTTCGCACTCGAGTAAACAAATTTTCCTAATCTTTCTGTTCAAGCGCCATCTAC,0.948 RPM ratio (pull-down/input)
4,GATGATTGTTCTCCCAGCTGATGAATTCCTACGATCGAGTAAACAAATTTTCCTAATCTTTCTGTTCAAGCGCCATCTAC,0.862 RPM ratio (pull-down/input)
5,GATGATTGTTCTCCCAGCTGATGAATTTCGGGCCTCGAGTAAACAAATTTTCCTAATCTTTCTGTTCAAGCGCCATCTAC,0.82 RPM ratio (pull-down/input)
6,GATGATTGTTCTCCCAGCTGATGAATTGTATGAATCGAGTAAACAAATTTTCCTAATCTTTCTGTTCAAGCGCCATCTAC,1.04 RPM ratio (pull-down/input)
7,GATGATTGTTCTCCCAGCTGATGAATTGGAGCTGTCGAGTAAACAAATTTTCCTAATCTTTCTGTTCAAGCGCCATCTAC,0.821 RPM ratio (pull-down/input)
8,GATGATTGTTCTCCCAGCTGATGAATTATCCGGCTCGAGTAAACAAATTTTCCTAATCTTTCTGTTCAAGCGCCATCTAC,0.805 RPM ratio (pull-down/input)
9,GATGATTGTTCTCCCAGCTGATGAATTGGATCTATCGAGTAAACAAATTTTCCTAATCTTTCTGTTCAAGCGCCATCTAC,0.875 RPM ratio (pull-down/input)
10,GATGATTGTTCTCCCAGCTGATGAATTGTGGCATTCGAGTAAACAAATTTTCCTAATCTTTCTGTTCAAGCGCCATCTAC,1.37 RPM ratio (pull-down/input)
11,GATGATTGTTCTCCCAGCTGATGAATTGCAGACTTCGAGTAAACAAATTTTCCTAATCTTTCTGTTCAAGCGCCATCTAC,1.11 RPM ratio (pull-down/input)
12,GATGATTGTTCTCCCAGCTGATGAATTTGAGTCTTCGAGTAAACAAATTTTCCTAATCTTTCTGTTCAAGCGCCATCTAC,0.878 RPM ratio (pull-down/input)
13,GATGATTGTTCTCCCAGCTGATGAATTGGGGCCTTCGAGTAAACAAATTTTCCTAATCTTTCTGTTCAAGCGCCATCTAC,0.842 RPM ratio (pull-down/input)
14,GATGATTGTTCTCCCAGCTGATGAATTTCGTTCGTCGAGTAAACAAATTTTCCTAATCTTTCTGTTCAAGCGCCATCTAC,0.832 RPM ratio (pull-down/input)
15,GATGATTGTTCTCCCAGCTGATGAATTCATGATCTCGAGTAAACAAATTTTCCTAATCTTTCTGTTCAAGCGCCATCTAC,0.863 RPM ratio (pull-down/input)
16,GATGATTGTTCTCCCAGCTGATGAATTCAAAGGATCGAGTAAACAAATTTTCCTAATCTTTCTGTTCAAGCGCCATCTAC,0.728 RPM ratio (pull-down/input)
17,GATGATTGTTCTCCCAGCTGATGAATTCAGAACTTCGAGTAAACAAATTTTCCTAATCTTTCTGTTCAAGCGCCATCTAC,0.799 RPM ratio (pull-down/input)
18,GATGATTGTTCTCCCAGCTGATGAATTGAAGATCTCGAGTAAACAAATTTTCCTAATCTTTCTGTTCAAGCGCCATCTAC,0.814 RPM ratio (pull-down/input)
19,GATGATTGTTCTCCCAGCTGATGAATTCTTCGACTCGAGTAAACAAATTTTCCTAATCTTTCTGTTCAAGCGCCATCTAC,0.817 RPM ratio (pull-down/input)
20,GATGATTGTTCTCCCAGCTGATGAATTTGGTACTTCGAGTAAACAAATTTTCCTAATCTTTCTGTTCAAGCGCCATCTAC,0.95 RPM ratio (pull-down/input)
21,GATGATTGTTCTCCCAGCTGATGAATTTATTTACTCGAGTAAACAAATTTTCCTAATCTTTCTGTTCAAGCGCCATCTAC,2.5 RPM ratio (pull-down/input)

row,Sequence,binding signal
1,GATGATTGTTCTCCCAGCTGATGAATTACTAGAGTCGAGTAAACAAATTTTCCTAATCTTTCTGTTCAAGCGCCATCTAC,1.07 RPM ratio (pull-down/input)
2,GATGATTGTTCTCCCAGCTGATGAATTGGCTTTGTCGAGTAAACAAATTTTCCTAATCTTTCTGTTCAAGCGCCATCTAC,0.881 RPM ratio (pull-down/input)
3,GATGATTGTTCTCCCAGCTGATGAATTCCAGCCGTCGAGTAAACAAATTTTCCTAATCTTTCTGTTCAAGCGCCATCTAC,0.696 RPM ratio (pull-down/input)
4,GATGATTGTTCTCCCAGCTGATGAATTGAAAAACTCGAGTAAACAAATTTTCCTAATCTTTCTGTTCAAGCGCCATCTAC,0.813 RPM ratio (pull-down/input)
5,GATGATTGTTCTCCCAGCTGATGAATTGAAAACGTCGAGTAAACAAATTTTCCTAATCTTTCTGTTCAAGCGCCATCTAC,1.02 RPM ratio (pull-down/input)
6,GATGATTGTTCTCCCAGCTGATGAATTTATCCTATCGAGTAAACAAATTTTCCTAATCTTTCTGTTCAAGCGCCATCTAC,1.07 RPM ratio (pull-down/input)
7,GATGATTGTTCTCCCAGCTGATGAATTAAAGTACTCGAGTAAACAAATTTTCCTAATCTTTCTGTTCAAGCGCCATCTAC,0.922 RPM ratio (pull-down/input)
8,GATGATTGTTCTCCCAGCTGATGAATTTAGGTACTCGAGTAAACAAATTTTCCTAATCTTTCTGTTCAAGCGCCATCTAC,0.947 RPM ratio (pull-down/input)
9,GATGATTGTTCTCCCAGCTGATGAATTCTCGGCGTCGAGTAAACAAATTTTCCTAATCTTTCTGTTCAAGCGCCATCTAC,0.815 RPM ratio (pull-down/input)
10,GATGATTGTTCTCCCAGCTGATGAATTGCCTCCTTCGAGTAAACAAATTTTCCTAATCTTTCTGTTCAAGCGCCATCTAC,1.02 RPM ratio (pull-down/input)
11,GATGATTGTTCTCCCAGCTGATGAATTCAGCGCATCGAGTAAACAAATTTTCCTAATCTTTCTGTTCAAGCGCCATCTAC,1.16 RPM ratio (pull-down/input)
12,GATGATTGTTCTCCCAGCTGATGAATTGATAGTGTCGAGTAAACAAATTTTCCTAATCTTTCTGTTCAAGCGCCATCTAC,1.07 RPM ratio (pull-down/input)
13,GATGATTGTTCTCCCAGCTGATGAATTTATGGTTTCGAGTAAACAAATTTTCCTAATCTTTCTGTTCAAGCGCCATCTAC,1.16 RPM ratio (pull-down/input)
14,GATGATTGTTCTCCCAGCTGATGAATTCAGGAATTCGAGTAAACAAATTTTCCTAATCTTTCTGTTCAAGCGCCATCTAC,0.864 RPM ratio (pull-down/input)
15,GATGATTGTTCTCCCAGCTGATGAATTCAAACGGTCGAGTAAACAAATTTTCCTAATCTTTCTGTTCAAGCGCCATCTAC,0.841 RPM ratio (pull-down/input)
16,GATGATTGTTCTCCCAGCTGATGAATTGAGGACTTCGAGTAAACAAATTTTCCTAATCTTTCTGTTCAAGCGCCATCTAC,0.783 RPM ratio (pull-down/input)
17,GATGATTGTTCTCCCAGCTGATGAATTGCACGAATCGAGTAAACAAATTTTCCTAATCTTTCTGTTCAAGCGCCATCTAC,1.22 RPM ratio (pull-down/input)
18,GATGATTGTTCTCCCAGCTGATGAATTAGTAGACTCGAGTAAACAAATTTTCCTAATCTTTCTGTTCAAGCGCCATCTAC,0.948 RPM ratio (pull-down/input)
19,GATGATTGTTCTCCCAGCTGATGAATTACCACATTCGAGTAAACAAATTTTCCTAATCTTTCTGTTCAAGCGCCATCTAC,1.15 RPM ratio (pull-down/input)
20,GATGATTGTTCTCCCAGCTGATGAATTCGAGGGATCGAGTAAACAAATTTTCCTAATCTTTCTGTTCAAGCGCCATCTAC,0.761 RPM ratio (pull-down/input)
21,GATGATTGTTCTCCCAGCTGATGAATTTGCGCAATCGAGTAAACAAATTTTCCTAATCTTTCTGTTCAAGCGCCATCTAC,1.25 RPM ratio (pull-down/input)

row,Sequence,binding signal
1,GATGATTGTTCTCCCAGCTGATGAATTATGACCATCGAGTAAACAAATTTTCCTAATCTTTCTGTTCAAGCGCCATCTAC,1.04 RPM ratio (pull-down/input)
2,GATGATTGTTCTCCCAGCTGATGAATTCTCTTAATCGAGTAAACAAATTTTCCTAATCTTTCTGTTCAAGCGCCATCTAC,0.948 RPM ratio (pull-down/input)
3,GATGATTGTTCTCCCAGCTGATGAATTTTCATAGTCGAGTAAACAAATTTTCCTAATCTTTCTGTTCAAGCGCCATCTAC,1.04 RPM ratio (pull-down/input)
4,GATGATTGTTCTCCCAGCTGATGAATTCGTGTATTCGAGTAAACAAATTTTCCTAATCTTTCTGTTCAAGCGCCATCTAC,1.35 RPM ratio (pull-down/input)
5,GATGATTGTTCTCCCAGCTGATGAATTCACACATTCGAGTAAACAAATTTTCCTAATCTTTCTGTTCAAGCGCCATCTAC,1.03 RPM ratio (pull-down/input)
6,GATGATTGTTCTCCCAGCTGATGAATTATTTCTCTCGAGTAAACAAATTTTCCTAATCTTTCTGTTCAAGCGCCATCTAC,1.08 RPM ratio (pull-down/input)
7,GATGATTGTTCTCCCAGCTGATGAATTATAGATTTCGAGTAAACAAATTTTCCTAATCTTTCTGTTCAAGCGCCATCTAC,0.919 RPM ratio (pull-down/input)
8,GATGATTGTTCTCCCAGCTGATGAATTACCATGATCGAGTAAACAAATTTTCCTAATCTTTCTGTTCAAGCGCCATCTAC,1.03 RPM ratio (pull-down/input)
9,GATGATTGTTCTCCCAGCTGATGAATTTTTTGCGTCGAGTAAACAAATTTTCCTAATCTTTCTGTTCAAGCGCCATCTAC,1.1 RPM ratio (pull-down/input)
10,GATGATTGTTCTCCCAGCTGATGAATTCCCTACATCGAGTAAACAAATTTTCCTAATCTTTCTGTTCAAGCGCCATCTAC,0.997 RPM ratio (pull-down/input)
11,GATGATTGTTCTCCCAGCTGATGAATTATGGCGCTCGAGTAAACAAATTTTCCTAATCTTTCTGTTCAAGCGCCATCTAC,1.02 RPM ratio (pull-down/input)
12,GATGATTGTTCTCCCAGCTGATGAATTGATAGCATCGAGTAAACAAATTTTCCTAATCTTTCTGTTCAAGCGCCATCTAC,1.3 RPM ratio (pull-down/input)
13,GATGATTGTTCTCCCAGCTGATGAATTACTTCTGTCGAGTAAACAAATTTTCCTAATCTTTCTGTTCAAGCGCCATCTAC,1.05 RPM ratio (pull-down/input)
14,GATGATTGTTCTCCCAGCTGATGAATTCCTAGCCTCGAGTAAACAAATTTTCCTAATCTTTCTGTTCAAGCGCCATCTAC,0.812 RPM ratio (pull-down/input)
15,GATGATTGTTCTCCCAGCTGATGAATTCAAATTGTCGAGTAAACAAATTTTCCTAATCTTTCTGTTCAAGCGCCATCTAC,0.924 RPM ratio (pull-down/input)
16,GATGATTGTTCTCCCAGCTGATGAATTGTGTGAGTCGAGTAAACAAATTTTCCTAATCTTTCTGTTCAAGCGCCATCTAC,1.07 RPM ratio (pull-down/input)
17,GATGATTGTTCTCCCAGCTGATGAATTGTTCGGTTCGAGTAAACAAATTTTCCTAATCTTTCTGTTCAAGCGCCATCTAC,1.03 RPM ratio (pull-down/input)
18,GATGATTGTTCTCCCAGCTGATGAATTGAAGGGTTCGAGTAAACAAATTTTCCTAATCTTTCTGTTCAAGCGCCATCTAC,0.759 RPM ratio (pull-down/input)
19,GATGATTGTTCTCCCAGCTGATGAATTGTGAATTTCGAGTAAACAAATTTTCCTAATCTTTCTGTTCAAGCGCCATCTAC,1.13 RPM ratio (pull-down/input)
20,GATGATTGTTCTCCCAGCTGATGAATTCCTAATCTCGAGTAAACAAATTTTCCTAATCTTTCTGTTCAAGCGCCATCTAC,0.834 RPM ratio (pull-down/input)
21,GATGATTGTTCTCCCAGCTGATGAATTGTCTCTATCGAGTAAACAAATTTTCCTAATCTTTCTGTTCAAGCGCCATCTAC,1.05 RPM ratio (pull-down/input)
